Test results published in article PMC4336329 (PLoS ONE, 2015).
In all, about 310,000 compounds went through this assay and about 14,000 (4.5%) showed an effect of 50% or more. The effect is printed as a negative number. The list shows a part of the results.

The compounds below were run against human ether-à-go-go-related gene (hERG) potassium channel (human, UniProt Q12809) (assay: primary screen, population patch clamp on CHO cells stably expressing hERG).
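Also: peak tail current of the secondary pulse compared with the same well before compound.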

Sequence of human ether-à-go-go-related gene (hERG) potassium channel (Q12809 whole entry, looked up): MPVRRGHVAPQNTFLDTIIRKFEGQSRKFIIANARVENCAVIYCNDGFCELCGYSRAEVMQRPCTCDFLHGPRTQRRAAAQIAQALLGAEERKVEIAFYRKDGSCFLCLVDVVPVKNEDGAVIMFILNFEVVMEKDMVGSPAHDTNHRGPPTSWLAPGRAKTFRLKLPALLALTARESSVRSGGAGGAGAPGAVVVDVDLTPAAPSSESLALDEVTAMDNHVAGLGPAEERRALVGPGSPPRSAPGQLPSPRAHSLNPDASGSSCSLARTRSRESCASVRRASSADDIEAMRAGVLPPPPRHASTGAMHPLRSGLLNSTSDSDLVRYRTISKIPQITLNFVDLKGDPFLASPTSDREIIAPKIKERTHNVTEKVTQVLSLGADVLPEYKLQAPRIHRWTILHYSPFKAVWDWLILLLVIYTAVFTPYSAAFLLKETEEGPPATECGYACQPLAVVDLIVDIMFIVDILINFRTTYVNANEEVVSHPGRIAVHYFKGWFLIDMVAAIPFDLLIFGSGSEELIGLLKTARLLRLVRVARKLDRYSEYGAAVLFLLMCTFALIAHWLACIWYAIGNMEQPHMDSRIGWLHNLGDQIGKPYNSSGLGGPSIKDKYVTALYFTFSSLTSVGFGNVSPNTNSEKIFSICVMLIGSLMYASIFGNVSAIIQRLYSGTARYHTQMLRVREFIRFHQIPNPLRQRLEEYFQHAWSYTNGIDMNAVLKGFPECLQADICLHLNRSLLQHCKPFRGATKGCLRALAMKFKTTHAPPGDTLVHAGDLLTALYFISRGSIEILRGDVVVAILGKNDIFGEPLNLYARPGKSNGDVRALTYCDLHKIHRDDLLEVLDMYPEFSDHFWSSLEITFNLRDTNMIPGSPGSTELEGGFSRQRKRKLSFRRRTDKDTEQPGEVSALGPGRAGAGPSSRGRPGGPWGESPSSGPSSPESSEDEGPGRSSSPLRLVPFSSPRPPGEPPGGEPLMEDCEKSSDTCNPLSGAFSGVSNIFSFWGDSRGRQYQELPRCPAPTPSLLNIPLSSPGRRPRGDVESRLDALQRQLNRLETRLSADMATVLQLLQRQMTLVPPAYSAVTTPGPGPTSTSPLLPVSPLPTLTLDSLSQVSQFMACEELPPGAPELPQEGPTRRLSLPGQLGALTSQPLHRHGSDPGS

Going from `O=C(NC1CCS(=O)(=O)C1)c1ccc(N2CCCCC2)c([N+](=O)[O-])c1` (centres unmarked) to `CCN1CCN(c2ccc(S(=O)(=O)N3CCCCC3)cc2NC(=O)c2ccc(OC(F)F)cc2)CC1`, the “hERG current change (%, negative = inhibition) at 10uM” value falls from -0.968% to -57.2%.

Compared with `Oc1ccc(Br)cc1-c1ccn[nH]1`, `COCCNC(=O)c1cc(Br)ccc1Cl` is lower in “hERG current change (%, negative = inhibition) at 10uM” value: -4.61% for the first, -6.51% for the second.

Going from `CCCCn1c(N)c(N(CCOC)C(=O)c2cc(-c3ccc(C)cc3)nc3ccccc23)c(=O)[nH]c1=O` to `CCCCn1c(N)c(N(CC(C)C)C(=O)CCCc2nc3ccccc3s2)c(=O)[nH]c1=O`, the “hERG current change (%, negative = inhibition) at 10uM” value falls from 6.75% to 3.63%.

Going from `O=C(O)c1ccc(CSc2nnc(-c3ccccc3Cl)n2-c2ccccc2)cc1` to `O=C(Nc1ccc(S(=O)(=O)Nc2nccs2)cc1)c1cc(-c2ccccc2Cl)nc2ccccc12`, the “hERG current change (%, negative = inhibition) at 10uM” value falls from 14.6% to 12%.

Compared with `CC(C)CCN1CC(C(=O)NCc2ccc(F)cc2)CC1=O` (centres unmarked), `O=C(O)C1CC(=O)N(Cc2ccc(F)cc2)C1` (centres unmarked) is higher in “hERG current change (%, negative = inhibition) at 10uM” value: -3.6% for the first, 1.36% for the second.

Going from `COc1ccc(NC(=O)CCn2cccc2)cc1` to `CCOc1ccc(CNC(=O)CCn2c(=O)oc3ccccc32)cc1`, the “hERG current change (%, negative = inhibition) at 10uM” value falls from -1.47% to -26.9%.

First: CCOc1ccccc1NC(=O)CSc1nnnn1-c1ccc(C(=O)OC)cc1
Second: CCOc1ccccc1NC(=O)CN1C(=O)NC(Cc2c[nH]c3ccccc23)C1=O (centres unmarked)
The “hERG current change (%, negative = inhibition) at 10uM” value of the first is higher: 0.536% for the first, -16.6% for the second.

Compared with `COc1ccc2c(c1)CCN1C2CCN2C(=O)CCC21` (centres unmarked), `COc1ccc(-c2ccc(-c3nnn(CC(=O)N4CCOCC4)n3)cc2)cc1` is lower in “hERG current change (%, negative = inhibition) at 10uM” value: 6.69% for the first, -4.7% for the second.

Going from `Cc1ccc(N2CC(NS(=O)(=O)c3cccs3)CC2=O)cc1C` (centres unmarked) to `Cc1cc(C)c(S(=O)(=O)Cc2ccc(Cl)cc2)c(=O)[nH]1`, the “hERG current change (%, negative = inhibition) at 10uM” value rises from 0.686% to 13.2%.

Compared with `O=C(NCCC1=CCCCC1)c1cc(-c2ccccn2)nc2ccccc12`, `Cc1cccnc1CCNC(=O)c1ccc(OC2CCN(Cc3ccccn3)CC2)cc1` is lower in “hERG current change (%, negative = inhibition) at 10uM” value: 8.77% for the first, -16.6% for the second.

Going from `Cc1ccc(/C=C/C(=O)NCc2cccs2)o1` to `CC(=O)NCC(c1cccs1)S(=O)(=O)c1ccc(F)cc1` (centres unmarked), the “hERG current change (%, negative = inhibition) at 10uM” value rises from -7.91% to 23.6%.

Going from `CC(C)c1ccc(NC(=O)C2C3C=CC4(O3)C2C(=O)N(CCCN2CCCCC2)C4C(=O)NC2CCCCC2)cc1` (centres unmarked) to `O=C(CSc1nnc(Cc2cc(=O)[nH]c(=O)[nH]2)n1-c1ccc(Cl)cc1)NC1CCCC1`, the “hERG current change (%, negative = inhibition) at 10uM” value rises from 9.89% to 10.7%.

Going from `O=C(CN1CCN(c2ccccn2)CC1)Nc1ccccc1Br` to `O=C(CN1CCN(c2cccc(C(F)(F)F)c2)CC1)NCc1ccccc1`, the “hERG current change (%, negative = inhibition) at 10uM” value rises from -31.6% to -17.1%.

Going from `O=[N+]([O-])c1cccc(-c2ccc(/C=N/n3c(-c4ccccc4)n[nH]c3=S)o2)c1` to `O=C(Nc1ncc(Cc2ccc(C(F)(F)F)cc2)s1)c1ccc(-c2cccc([N+](=O)[O-])c2)o1`, the “hERG current change (%, negative = inhibition) at 10uM” value rises from 3.09% to 20.2%.

First: COc1ccc(N=C(NN)c2ccc3ccccc3n2)cc1
Second: COc1ccc(CC(=O)Nc2cc3oc4ccccc4c3cc2OC)cc1
The “hERG current change (%, negative = inhibition) at 10uM” value of the first is higher: 8.02% for the first, -7.9% for the second.

First: O=C(CN1C(=O)c2cccc3cccc(c23)C1=O)NCCCO
Second: O=C(CSc1ccccc1)NCCSCc1ccccc1
The “hERG current change (%, negative = inhibition) at 10uM” value of the first is higher: 9.79% for the first, -3.89% for the second.

Going from `COc1cccc(C(=O)NC(C)c2cccc3ccccc23)c1OC` (centres unmarked) to `COc1ccc(-c2nnc(SCC(=O)NC(C)c3ccccc3)o2)cc1OC` (centres unmarked), the “hERG current change (%, negative = inhibition) at 10uM” value rises from -10.4% to -6.11%.

Going from `COc1ccc(Nc2nnc(-c3ccc(C)cc3)c3ccccc23)cc1C(=O)N1CCCCC1` to `COc1ccc(NC(=O)c2cc(C)nc3ccccc23)cc1S(=O)(=O)Nc1ccccc1Cl`, the “hERG current change (%, negative = inhibition) at 10uM” value rises from -33.7% to 11%.

Compared with `Cc1ccc(S(=O)(=O)NC(C)(C)CN2CCCCC2)cc1`, `N#C/C(=N\Nc1cccc(F)c1)C(=N)N1CCCCCC1` is lower in “hERG current change (%, negative = inhibition) at 10uM” value: 3.77% for the first, -17.6% for the second.

First: CC1=NCCc2c1[nH]c1ccccc21
Second: CCc1nc2ccccc2c(NC(=O)CN2CCC(C)CC2)c1C.O=C(O)C(=O)O
The “hERG current change (%, negative = inhibition) at 10uM” value of the first is higher: -22.7% for the first, -29.2% for the second.

First: CCCC(=O)c1c[nH]c(C(=O)NCc2cccnc2)c1
Second: O=C(CCNNC(=O)c1ccncc1)NCc1ccccc1
The “hERG current change (%, negative = inhibition) at 10uM” value of the first is higher: 20.9% for the first, 9.98% for the second.

First: Cc1cc(C)c2nc(C(F)(F)F)nc(NCCCN3CCOCC3)c2c1
Second: Cc1cccc(NC(=O)C(=O)NCCCN2CCOCC2)c1
The “hERG current change (%, negative = inhibition) at 10uM” value of the first is lower: -10.1% for the first, 21.3% for the second.

Compared with `Cc1ccccc1S(=O)(=O)N(CC(O)CN1C(=O)NC(C)(C)C1=O)c1ccccc1` (centres unmarked), `COC(=O)c1c(C)[nH]c(C)c1C(=O)c1ccccc1Cc1ccccc1` is lower in “hERG current change (%, negative = inhibition) at 10uM” value: 1.47% for the first, -9% for the second.

Going from `O=[N+]([O-])c1ccc(Cl)cc1CNc1ccc(F)c(F)c1` to `Cn1c(SCc2ccc(F)cc2Cl)nc2ccccc2c1=O`, the “hERG current change (%, negative = inhibition) at 10uM” value rises from 0.95% to 15.5%.

Going from `Cc1ccccc1OCC(=O)OCn1nnc2ccccc2c1=O` to `O=C(CSc1nc2ccccc2c(=O)n1CC1CCCO1)N1CCN(c2ccccc2)CC1` (centres unmarked), the “hERG current change (%, negative = inhibition) at 10uM” value falls from 19.6% to -73.4%.

Compared with `COc1ccccc1Nc1nn2c(=O)c3ccc(C(=O)N4CCC(C)CC4)cc3nc2s1`, `COc1ccc(S(=O)(=O)NCc2c(-c3ccccc3)noc2C)c(OC)c1` is lower in “hERG current change (%, negative = inhibition) at 10uM” value: 1.58% for the first, -16.8% for the second.

Going from `Cc1ccc(C(=O)NCCCNC(=O)c2ccc(C)nc2)cc1` to `O=C(CCNC(=O)c1ccc(Cl)cc1)NC1CCCc2ccccc21` (centres unmarked), the “hERG current change (%, negative = inhibition) at 10uM” value falls from 10.5% to 2.28%.

First: c1ccc(CNCCc2c[nH]c3ccccc23)cc1
Second: O=c1oc2ccccc2n1CCc1ccccc1
The “hERG current change (%, negative = inhibition) at 10uM” value of the first is higher: -13.3% for the first, -14.1% for the second.

Going from `CN(CC(=O)Nc1ccc(OC(F)(F)F)cc1)C(=O)C1CCC1` to `CCOC(=O)c1ccccc1NC(=O)COC(=O)CC1CCCCC1`, the “hERG current change (%, negative = inhibition) at 10uM” value rises from -1.21% to 7.72%.

Compared with `CCc1nnc(NC(=O)CSc2nnc(-c3ccoc3C)n2-c2cccc(C)c2)s1`, `CCn1c(SCC(=O)NCCc2ccccc2)nnc1-c1ccco1` is higher in “hERG current change (%, negative = inhibition) at 10uM” value: -58.3% for the first, -18.1% for the second.

Going from `COc1ccc2nc(SCc3cccnc3)c(C#N)cc2c1` to `COc1ccc(CSc2ncnc3sccc23)cc1F`, the “hERG current change (%, negative = inhibition) at 10uM” value rises from -1.26% to 26.9%.

First: Cl.OCCN(CCO)CC(O)CN1c2ccccc2Sc2ccccc21 (centres unmarked)
Second: O=C(CC(c1ccccc1)c1ccccc1O)N1CCCC1 (centres unmarked)
The “hERG current change (%, negative = inhibition) at 10uM” value of the first is lower: -12.9% for the first, -11.9% for the second.

First: O=C(Nc1ccc2c(c1)OCCO2)C1CCN(S(=O)(=O)c2ccc(Br)s2)CC1
Second: CCCCNC(=O)C1CCN(S(=O)(=O)c2cnc[nH]2)CC1
The “hERG current change (%, negative = inhibition) at 10uM” value of the first is lower: 3.85% for the first, 10.3% for the second.

Compared with `COC(=O)C1=C(C)NC2=C(C(=O)CC(C)(C)C2)C1c1cnn(C)c1C` (centres unmarked), `CCOC(=O)[C@H]1[C@H]2COc3ccc(Br)cc3[C@@H]2N2C(=O)CN(Cc3ccc(F)cc3)C(=O)[C@@]12C` is lower in “hERG current change (%, negative = inhibition) at 10uM” value: 15.6% for the first, -3.28% for the second.

Compared with `O=C(O)c1cc2c(s1)-c1ccccc1OC2`, `CCN(CC)S(=O)(=O)c1csc(C(=O)OCC(=O)c2ccccc2)c1` is lower in “hERG current change (%, negative = inhibition) at 10uM” value: 9.73% for the first, -2.37% for the second.

Compared with `O=C(c1cn(-c2ccc(Cl)c(Cl)c2)nn1)C1CC1`, `COc1ccc(S(=O)(=O)c2c[nH]c(=S)[nH]c2=O)cc1Cl` is higher in “hERG current change (%, negative = inhibition) at 10uM” value: 11.6% for the first, 21.9% for the second.

Going from `O=S(=O)(CCN(CCS(=O)(=O)C(F)(F)F)CC1CCCO1)C(F)(F)F` (centres unmarked) to `CCCC(C(=O)NC1CCCC1)N(CC1CCCO1)C(=O)c1snc(C(N)=O)c1N` (centres unmarked), the “hERG current change (%, negative = inhibition) at 10uM” value falls from -6.91% to -36.4%.

First: N#CC(=C=[N-])C1=C(C#N)C(c2ccccc2F)C([n+]2ccccc2)C(O)(C2CC2)N1 (centres unmarked)
Second: O=C(Nc1ccccc1Cl)c1cc[n+](Cc2ccc([N+](=O)[O-])cc2)cc1.[Br-]
The “hERG current change (%, negative = inhibition) at 10uM” value of the first is higher: 14.3% for the first, 10.6% for the second.

Compared with `FCCCOc1ccc(-c2nccc(-c3ccccn3)n2)cc1`, `c1ccc(Cc2nc3ccccc3n2Cc2ccccc2)cc1` is lower in “hERG current change (%, negative = inhibition) at 10uM” value: 7.26% for the first, -53.4% for the second.

Going from `C#CCOc1c(Cl)cc(/C=N/O)cc1OC` to `COc1cc(C(=O)Oc2cc(N)n(S(=O)(=O)c3ccc(F)cc3)n2)cc(OC)c1OC`, the “hERG current change (%, negative = inhibition) at 10uM” value rises from 4.04% to 16.1%.

First: Cc1nc(N)nc(Nc2ccc(C#N)cc2)c1Br
Second: COc1ccc(-c2c(C#N)c(N)nc3c2CCc2ccccc2-3)cc1OC
The “hERG current change (%, negative = inhibition) at 10uM” value of the first is lower: -4% for the first, 7.25% for the second.

Going from `Cc1ccc(NC(=O)/C(=C\c2ccc3c(c2)OCO3)NC(=O)c2ccco2)cc1` to `CN1CCN(c2ccc(NC(=O)c3ccc(-c4ccc(Br)cc4)o3)cc2)CC1`, the “hERG current change (%, negative = inhibition) at 10uM” value falls from 1.13% to 0.645%.

First: CCOC(=O)c1csc(N)n1.Cl
Second: CCOc1[nH]c(/N=C/c2ccco2)c(C#N)c1C#N
The “hERG current change (%, negative = inhibition) at 10uM” value of the first is higher: 8.31% for the first, 3.52% for the second.

First: O=C(CCN1C(=O)/C(=C\c2cccc(Br)c2)SC1=S)N1CCOCC1
Second: Cc1sc2nc(C(C)Nc3ccccc3N3CCOCC3)[nH]c(=O)c2c1C (centres unmarked)
The “hERG current change (%, negative = inhibition) at 10uM” value of the first is lower: 8.36% for the first, 11.1% for the second.

In the case of `CCCCc1nc(SCCOC)c2c(=O)n(C)c(=O)n(C)c2n1`, the “hERG current change (%, negative = inhibition) at 10uM” value was -23%.
